The supplement of paper PMC12067093, “Discovery and optimisation of a covalent ligand for TRIM25 and its application to targeted protein ubiquitination” (Chemical Science, 2025)
Targets with the largest changes are over-represented here; the source holds about 21,000 in all.

Compound: CC1Cc2ccccc2N1C(=O)C1CCCN(C1)C(=O)CCl (mixture of isomers) [TRIM25 ligand 11 (diastereomer mixture)]
Assay: probe-labelled cysteine peptide fold change vs DMSO (competition) (log2 fold change); higher = less target engagement (more negative = stronger competition)
Settings: THP-1, incubation time: 4 h
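Also: competitive chemoproteomic profiling in live THP-1 cells with an iodoacetamide desthiobiotin (IA-DTB) probe, comparing probe-labelled peptide intensities in compound-treated cells against DMSO-treated controls.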

Sequence of UniProt Q07955 (Q07955 whole entry, looked up): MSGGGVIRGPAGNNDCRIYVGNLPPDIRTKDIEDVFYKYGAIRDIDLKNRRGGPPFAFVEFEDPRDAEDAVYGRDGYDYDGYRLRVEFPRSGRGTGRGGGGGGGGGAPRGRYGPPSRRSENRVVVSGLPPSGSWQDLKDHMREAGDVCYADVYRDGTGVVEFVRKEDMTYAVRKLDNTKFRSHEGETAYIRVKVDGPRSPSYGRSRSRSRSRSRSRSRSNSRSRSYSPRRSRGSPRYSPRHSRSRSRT
Sequence of UniProt Q9NXG2 (Q9NXG2 whole entry, looked up): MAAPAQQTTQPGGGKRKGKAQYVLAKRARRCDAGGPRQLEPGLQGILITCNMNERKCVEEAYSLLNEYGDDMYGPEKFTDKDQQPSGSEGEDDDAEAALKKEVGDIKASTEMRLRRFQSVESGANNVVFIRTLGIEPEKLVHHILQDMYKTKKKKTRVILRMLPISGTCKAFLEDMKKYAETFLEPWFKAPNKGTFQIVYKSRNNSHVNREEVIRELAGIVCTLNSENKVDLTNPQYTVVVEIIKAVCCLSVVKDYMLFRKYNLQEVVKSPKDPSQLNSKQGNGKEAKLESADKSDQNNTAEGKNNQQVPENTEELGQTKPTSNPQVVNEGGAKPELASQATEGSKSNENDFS
Sequence of UniProt Q9Y2Z0 (Q9Y2Z0 whole entry, looked up): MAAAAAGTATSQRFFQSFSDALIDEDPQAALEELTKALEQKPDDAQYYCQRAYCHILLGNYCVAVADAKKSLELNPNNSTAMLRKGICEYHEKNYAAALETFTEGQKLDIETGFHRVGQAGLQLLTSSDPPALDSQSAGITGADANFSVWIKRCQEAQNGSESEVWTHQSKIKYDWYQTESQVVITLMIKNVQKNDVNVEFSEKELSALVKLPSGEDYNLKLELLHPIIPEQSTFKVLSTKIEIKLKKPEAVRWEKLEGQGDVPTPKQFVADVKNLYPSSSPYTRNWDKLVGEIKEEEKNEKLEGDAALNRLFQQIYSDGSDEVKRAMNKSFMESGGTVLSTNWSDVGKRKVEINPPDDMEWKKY
Sequence of UniProt Q86TI0 (Q86TI0 whole entry, looked up): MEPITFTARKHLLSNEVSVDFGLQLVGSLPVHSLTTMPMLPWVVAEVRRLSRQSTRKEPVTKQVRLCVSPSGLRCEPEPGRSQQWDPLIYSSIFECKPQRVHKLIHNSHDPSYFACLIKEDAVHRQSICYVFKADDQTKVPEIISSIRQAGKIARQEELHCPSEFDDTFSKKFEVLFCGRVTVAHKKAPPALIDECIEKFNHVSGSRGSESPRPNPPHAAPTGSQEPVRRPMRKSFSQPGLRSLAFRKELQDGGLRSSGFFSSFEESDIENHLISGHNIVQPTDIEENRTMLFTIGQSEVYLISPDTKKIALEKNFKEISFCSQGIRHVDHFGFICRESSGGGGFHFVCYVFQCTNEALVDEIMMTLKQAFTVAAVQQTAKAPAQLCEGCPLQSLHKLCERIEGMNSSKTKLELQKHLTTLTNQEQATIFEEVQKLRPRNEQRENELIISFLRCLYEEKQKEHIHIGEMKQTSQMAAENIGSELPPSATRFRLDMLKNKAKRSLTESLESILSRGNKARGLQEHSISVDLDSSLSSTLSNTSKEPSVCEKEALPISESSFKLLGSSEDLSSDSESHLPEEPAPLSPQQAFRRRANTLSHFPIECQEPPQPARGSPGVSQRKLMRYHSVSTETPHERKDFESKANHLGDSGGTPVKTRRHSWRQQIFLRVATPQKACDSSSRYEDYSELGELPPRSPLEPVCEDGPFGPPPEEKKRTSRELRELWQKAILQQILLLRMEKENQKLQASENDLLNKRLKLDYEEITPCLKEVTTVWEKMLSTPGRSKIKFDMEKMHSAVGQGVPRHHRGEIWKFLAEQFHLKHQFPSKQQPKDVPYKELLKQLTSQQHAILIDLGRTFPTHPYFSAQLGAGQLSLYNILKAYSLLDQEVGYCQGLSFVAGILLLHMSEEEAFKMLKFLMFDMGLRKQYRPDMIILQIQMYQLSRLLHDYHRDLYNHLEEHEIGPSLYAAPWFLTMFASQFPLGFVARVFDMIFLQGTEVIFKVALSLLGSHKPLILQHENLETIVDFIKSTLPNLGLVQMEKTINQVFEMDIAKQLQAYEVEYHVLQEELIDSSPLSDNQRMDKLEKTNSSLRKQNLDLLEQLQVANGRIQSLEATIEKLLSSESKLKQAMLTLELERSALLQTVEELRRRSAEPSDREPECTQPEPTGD
Sequence of UniProt Q8IYB8 (Q8IYB8 whole entry, looked up): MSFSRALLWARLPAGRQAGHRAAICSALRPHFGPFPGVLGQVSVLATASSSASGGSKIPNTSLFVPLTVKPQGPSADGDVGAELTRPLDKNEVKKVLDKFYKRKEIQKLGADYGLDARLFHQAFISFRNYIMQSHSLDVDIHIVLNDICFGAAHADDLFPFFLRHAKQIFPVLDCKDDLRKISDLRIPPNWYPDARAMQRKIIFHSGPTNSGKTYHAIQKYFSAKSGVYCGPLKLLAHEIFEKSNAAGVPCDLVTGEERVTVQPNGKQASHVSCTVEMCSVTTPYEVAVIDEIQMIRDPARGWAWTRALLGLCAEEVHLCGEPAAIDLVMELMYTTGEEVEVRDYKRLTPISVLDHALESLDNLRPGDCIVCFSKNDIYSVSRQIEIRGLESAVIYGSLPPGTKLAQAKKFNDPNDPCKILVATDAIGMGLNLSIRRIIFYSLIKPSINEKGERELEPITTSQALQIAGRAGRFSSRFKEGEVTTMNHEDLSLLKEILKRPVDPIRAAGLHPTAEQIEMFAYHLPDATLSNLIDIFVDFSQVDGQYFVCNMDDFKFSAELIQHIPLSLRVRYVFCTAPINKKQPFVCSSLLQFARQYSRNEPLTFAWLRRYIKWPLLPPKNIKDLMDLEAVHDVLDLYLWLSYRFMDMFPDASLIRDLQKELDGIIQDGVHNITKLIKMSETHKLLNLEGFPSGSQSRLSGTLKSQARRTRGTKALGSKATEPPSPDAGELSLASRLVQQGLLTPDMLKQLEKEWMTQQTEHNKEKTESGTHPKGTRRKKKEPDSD
Sequence of UniProt Q8NHU6 (Q8NHU6 whole entry, looked up): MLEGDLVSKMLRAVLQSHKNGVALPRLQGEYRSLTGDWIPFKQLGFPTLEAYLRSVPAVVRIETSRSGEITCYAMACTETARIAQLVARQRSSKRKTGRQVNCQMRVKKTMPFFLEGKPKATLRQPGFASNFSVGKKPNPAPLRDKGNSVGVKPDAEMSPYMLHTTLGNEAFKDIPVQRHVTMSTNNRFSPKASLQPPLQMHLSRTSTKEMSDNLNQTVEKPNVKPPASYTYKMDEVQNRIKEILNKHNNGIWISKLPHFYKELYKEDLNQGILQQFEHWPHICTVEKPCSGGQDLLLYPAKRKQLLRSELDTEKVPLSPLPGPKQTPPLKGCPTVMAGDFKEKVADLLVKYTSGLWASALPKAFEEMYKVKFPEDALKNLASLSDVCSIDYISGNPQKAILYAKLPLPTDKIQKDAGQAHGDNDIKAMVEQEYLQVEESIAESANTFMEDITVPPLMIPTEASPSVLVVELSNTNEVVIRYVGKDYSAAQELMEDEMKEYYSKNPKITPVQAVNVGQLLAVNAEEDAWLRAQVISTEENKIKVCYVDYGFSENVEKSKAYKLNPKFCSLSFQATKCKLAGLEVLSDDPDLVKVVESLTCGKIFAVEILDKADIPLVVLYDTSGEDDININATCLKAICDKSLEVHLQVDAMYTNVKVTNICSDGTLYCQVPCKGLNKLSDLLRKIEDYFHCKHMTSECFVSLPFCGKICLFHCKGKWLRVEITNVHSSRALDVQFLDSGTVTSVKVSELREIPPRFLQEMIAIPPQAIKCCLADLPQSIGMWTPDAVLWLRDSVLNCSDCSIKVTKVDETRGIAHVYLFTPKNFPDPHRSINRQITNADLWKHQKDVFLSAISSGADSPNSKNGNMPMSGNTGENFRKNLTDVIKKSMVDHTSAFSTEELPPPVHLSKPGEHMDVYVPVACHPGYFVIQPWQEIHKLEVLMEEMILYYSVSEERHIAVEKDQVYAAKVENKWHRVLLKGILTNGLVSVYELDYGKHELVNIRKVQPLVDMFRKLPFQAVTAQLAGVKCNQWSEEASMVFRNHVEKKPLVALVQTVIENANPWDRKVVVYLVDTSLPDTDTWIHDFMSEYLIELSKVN
Sequence of UniProt A5PLN9 (A5PLN9 whole entry, looked up): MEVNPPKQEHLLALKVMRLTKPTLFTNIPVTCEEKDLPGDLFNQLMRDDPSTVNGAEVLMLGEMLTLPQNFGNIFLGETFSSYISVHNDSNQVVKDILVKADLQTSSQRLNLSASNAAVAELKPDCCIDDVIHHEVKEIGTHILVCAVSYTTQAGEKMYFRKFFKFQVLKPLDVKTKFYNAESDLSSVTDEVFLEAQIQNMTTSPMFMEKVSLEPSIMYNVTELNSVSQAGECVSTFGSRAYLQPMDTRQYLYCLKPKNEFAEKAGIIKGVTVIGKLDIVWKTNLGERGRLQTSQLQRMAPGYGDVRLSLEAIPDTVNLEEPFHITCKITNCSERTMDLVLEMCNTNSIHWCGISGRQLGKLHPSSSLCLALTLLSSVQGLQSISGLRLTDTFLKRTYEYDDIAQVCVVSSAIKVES
Sequence of UniProt P53597 (P53597 whole entry, looked up): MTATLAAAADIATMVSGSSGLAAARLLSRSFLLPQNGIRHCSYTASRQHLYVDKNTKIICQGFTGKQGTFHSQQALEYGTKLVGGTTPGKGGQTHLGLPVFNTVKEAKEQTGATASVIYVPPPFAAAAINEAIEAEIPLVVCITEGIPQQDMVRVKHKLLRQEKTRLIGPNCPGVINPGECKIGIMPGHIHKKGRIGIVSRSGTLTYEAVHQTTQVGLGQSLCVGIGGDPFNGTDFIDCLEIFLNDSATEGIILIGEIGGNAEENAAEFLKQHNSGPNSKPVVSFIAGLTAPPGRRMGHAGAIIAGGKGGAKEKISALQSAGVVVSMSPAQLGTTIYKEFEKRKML

| Target | probe-labelled cysteine peptide fold change (10 µM) | probe-labelled cysteine peptide fold change (50 µM) |
| --- | --- | --- |
| SUPV3L1_Q8IYB8_418_FNDPNDPCK (UniProt Q8IYB8) | 0.0828 | 0.0389 |
| TANC1_Q9C0D5_741_VVPVSLSELYLLQCNMK (UniProt Q9C0D5) | -0.0893 | -0.179 |
| TBC1D9B_Q66K14_839_HLASQYWGCSR (UniProt Q66K14) | 0.0803 | -0.0404 |
| SRSF1_Q07955_16_GPAGNNDCR (UniProt Q07955) | 0.282 | 0.178 |
| TANC1_Q9C0D5_1808_CQIPVHSQENR (UniProt Q9C0D5) | 0.584 | -0.28 |
| SUGT1_Q9Y2Z0_154_CQEAQNGSESEVWTHQSK (UniProt Q9Y2Z0) | 0.177 | -0.0987 |
| TBC1D1_Q86TI0_701_SPLEPVCEDGPFGPPPEEK (UniProt Q86TI0) | -0.0503 | -0.49 |
| TDRD7_Q8NHU6_72_SGEITCYAMACTETAR (UniProt Q8NHU6) | -0.0928 | 0.00492 |
| TRAPPC13_A5PLN9_32_LTKPTLFTNIPVTCEEK (UniProt A5PLN9) | -0.00439 | 0.0542 |
| TBC1D8B_Q0IIM8_305_EVHECFLWVPFSHFNTHGK (UniProt Q0IIM8) | -0.0455 | 0.00922 |
| TBCE_Q15813_141_NCAVSCAGEK (UniProt Q15813) | -0.0162 | -0.576 |
| TBC1D23_Q9NUY8_31_DLEEALEAGGCDLETLR (UniProt Q9NUY8) | -0.0107 | -0.0319 |
| SUCLG1_P53597_172+181_LIGPNCPGVINPGECK (UniProt P53597) | -0.0541 | 0.0643 |
| THUMPD1_Q9NXG2_31_CDAGGPR (UniProt Q9NXG2) | 0.795 | 0.964 |
